In PubChem BioAssay AID1240 (Sanford-Burnham Center for Chemical Genomics, 2008):
Screen size: about 50,000 compounds; about 800 (1.6%) showed an effect of 50% or more. Some of the results follow.

Target: Bcl-2-like protein 10 (Homo sapiens) (UniProt Q9HD36)
Assay: Phenotype converters, Bcl-B/TR3 peptide binding displacement, primary biochemical FP (AID 1240);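 also: 0% = Bcl-B with tracer peptide and DMSO and 100% = tracer peptide lacking Bcl-B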
Details: GST-Bcl-B / FITC-TR3 peptide fluorescence polarization; stronger effect = higher value; compound at 3.75 mg/L

UniProt Q9HD36, sequence (Q9HD36 whole entry, looked up): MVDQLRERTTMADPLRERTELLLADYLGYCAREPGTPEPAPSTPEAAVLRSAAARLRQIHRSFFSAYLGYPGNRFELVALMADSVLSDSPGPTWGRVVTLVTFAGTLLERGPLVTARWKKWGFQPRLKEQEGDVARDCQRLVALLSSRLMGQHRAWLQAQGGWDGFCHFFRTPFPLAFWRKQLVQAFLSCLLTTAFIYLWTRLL

In order of falling displacement:
1. O=[N+]([O-])c1ccc(-c2ccc(/C=N/n3cnnc3)o2)cc1  139%
2. COc1ccc(-c2nn(-c3ccccc3)cc2/C=C2\N=C(c3ccccc3)OC2=O)cc1[N+](=O)[O-]  93.8%
3. CCOC(=O)C1=C(C)N=c2s/c(=C/c3ccc(Cl)cc3)c(=O)n2C1c1ccccc1 (stereo not drawn)  90.8%
4. O=[N+]([O-])c1ccc(Sc2c(-c3ccccc3)nc3ccccn23)cc1  20%
5. COc1ccc(S(=O)(=O)Nc2ncccn2)cc1  17.2%
6. O=C1/C(=C/c2ccco2)SC(=S)N1c1cccc(C(F)(F)F)c1  15.4%
7. CCn1c2ccccc2c2cc(NC(=O)Cc3ccc(Cl)cc3)ccc21  15.1%
8. C=CCN1C(=O)/C(=C\c2cc(C)n(-c3ccc([N+](=O)[O-])cc3)c2C)SC1=S  14.9%
9. Cc1ccccc1NC(=O)c1c(-c2c(F)cccc2Cl)noc1C  14.2%
10. CCOc1ccc(C(=O)/C=C/c2ccc(C(=O)OC)cc2)cc1  13.5%
11. COc1ccccc1C(=O)Oc1ccc2oc(=O)sc2c1  13.3%
12. CCOc1cc(C(=O)Nc2ccc(Cl)cc2Cl)cc(OCC)c1OCC  12.1%
13. COC(=O)C1=C(C)NC(=O)/C1=C\c1ccccc1  11.9%
14. COc1c(Cl)cc(C(=O)N2CCN(c3ccc(-n4c(C)ccc4C)cc3[N+](=O)[O-])CC2)cc1Cl  11.4%
15. CCOC(=O)c1sc(NC(=O)c2ccc(S(=O)(=O)N3CCOCC3)cc2)c(C(=O)OCC)c1C  8.8%
16. Cc1ccc2ncnc(NCCCN3CCOCC3)c2c1  8.6%
17. Cc1ccc([N+](=O)[O-])cc1NC(=O)CCCOc1ccccc1  8.1%
18. O=C(COc1ccc2c3c(c(=O)oc2c1)CCC3)c1ccc(F)cc1  7.8%
19. O=C1/C(=C\c2ccc([N+](=O)[O-])cc2)SC(=S)N1c1cccc(C(F)(F)F)c1  7.7%
20. FC(F)(F)COc1nc(N2CCNCC2)nc(N(c2ccccc2)c2ccccc2)n1  7.7%
21. O=C(NC(c1ccccc1)c1ccccc1)c1ccc(Cl)c([N+](=O)[O-])c1  7.3%
22. C(=N\c1nc2ccccc2n1CCN1CCOCC1)/c1ccc2c(c1)OCO2  7.2%
23. O=C(Cc1ccccc1)Nc1nnc(CCc2ccccc2)s1  5.1%
24. Cc1ccc(CNC(=O)c2ccc([N+](=O)[O-])cc2)cc1  3.8%
25. CN(C)CCCN1C(=O)C2CC3=C(CC2C1=O)C(C)(C)CCC3 (stereo not drawn)  3.7%
26. CCOC(=O)Cc1csc(NC(=O)COc2c(C)cccc2C)n1  3.5%
27. CC1=C(C(=O)Nc2ccc(Br)cc2)C(c2ccc(F)cc2)NC(=O)N1 (stereo not drawn)  3%
28. CCOC(=O)c1cnn(-c2ccccc2)c1NC(=O)c1ccc([N+](=O)[O-])cc1  1.9%
29. NC1=NC(=O)CC(C(=O)Nc2ccccc2)S1 (stereo not drawn)  1.3%
30. Cc1cccc(OCC(=O)Nc2ccccc2C(C)C)c1C  1.3%
31. Cc1ccc(OCC(=O)N/N=C\c2ccncc2)cc1  1.2%
32. CSc1ccc(C2Nc3ccccc3NC3=C2C(=O)CC(c2ccccc2)C3)cc1 (stereo not drawn)  1.2%
33. C=C(C)c1cccc(C(C)(C)NC(=O)Nc2ccc(C(N)=O)cc2)c1  1%
34. COC(=O)c1cccc(NC(=O)CCCOc2ccccc2)c1  0.6%
35. COc1ccc(C2C3C(=O)N(c4ccccc4)C(=O)C3N3CCCN23)cc1 (stereo not drawn)  0%
36. c1ccc2c(c1)OCC(c1csc(C3COc4ccccc4O3)n1)O2 (stereo not drawn)  -0.3%
37. CC(=O)N(c1ccc(Br)cc1)C1SC(=O)N(c2cccc(C)c2)C1=O (stereo not drawn)  -0.5%
38. O=C1C(Nc2ccccc2)=CC(c2ccccc2Cl)N1c1ccccc1 (stereo not drawn)  -0.7%
39. COc1ccc(C2/C(=C(\O)c3ccc(F)cc3)C(=O)C(=O)N2CCCCCC(=O)O)c(OC)c1 (stereo not drawn)  -1.6%
40. COc1ccc(/C(N)=N/OC(=O)c2cccc(Br)c2)cc1OC  -1.7%
41. CC1=C(C(=O)Nc2ccc(Cl)cc2)C(c2ccc(Br)cc2)NC(=S)N1 (stereo not drawn)  -2.1%
42. Cc1ccc(S(=O)(=O)CCc2nc3ccccc3o2)cc1C  -2.3%
43. COc1ccc(N2CC(C(=O)OCC(=O)c3ccc(Br)cc3)CC2=O)cc1 (stereo not drawn)  -2.3%
44. O=C(Nc1cc(Cl)cc(Cl)c1)C(c1ccccc1)c1ccccc1  -2.6%
45. CCCCC1(C2CCCCC2)Cc2ccccc2-c2nc(SCC(N)=O)[nH]c(=O)c21 (stereo not drawn)  -2.9%
46. O=C(COc1ccccc1Cl)N1CCN(c2ccc([N+](=O)[O-])cc2)CC1  -3.3%
47. CC(C)(C)c1ccc(OCCOc2ccc(/C=N/n3cnnc3)cc2)cc1  -3.3%
48. CC(=O)Nc1ccc(N2C(=O)c3cccc4c([N+](=O)[O-])ccc(c34)C2=O)cc1  -4.1%
49. COc1ccc(-c2nnc(NC(=O)c3ccc(Cl)cc3)s2)cc1OC  -4.3%
50. COc1cccc(CN2CCN(Cc3c[nH]c4ccccc34)CC2)c1OC  -5.2%
51. COc1ccc(C(=O)N2CCN(Cc3ccc(Br)cc3)CC2)cc1OC  -5.4%
52. CCOc1ccccc1NC(=O)c1ccccc1[N+](=O)[O-]  -6%
53. O=c1oc2cc(OCc3ccccc3F)ccc2c2c1CCCC2  -6.6%
54. COc1cccc(C(=O)N2c3ccccc3Sc3ccccc32)c1  -6.7%
55. O=C(Nc1cccnc1)c1ccccc1Br  -6.7%
56. O=S(=O)(c1cccc2cccnc12)N1CCN(c2ccccc2)CC1  -8.1%
57. CC1=CC(C)(C)Nc2ccc(OC(=O)C(Cc3ccccc3)N3C(=O)c4ccccc4C3=O)cc21 (stereo not drawn)  -8.8%
58. COc1ccc(OCC(=O)NCCCN2CCOCC2)cc1  -8.9%
59. O=C(COc1ccc2ccccc2c1)Nc1ccc(Cl)cc1Cl  -9.8%
60. C=CCn1c(SCC(=O)NCCCO)nc2sc3c(c2c1=O)CCC3  -10.9%
61. COc1ccc(/C=C/C(=O)C(C)(C)OC(C)=O)cc1  -11.5%
62. Cc1ccc(/C=N/NC(=O)c2cc(C3CC3)[nH]n2)cc1  -12.2%
63. O=C(O)COc1ccc(-c2nc3sc4c(c3c(=O)[nH]2)CCCC4)cc1  -14.6%
64. Cc1ccc(C)c(OCc2nnc(NC(=O)c3ccco3)s2)c1  -16.3%
65. Cc1ccc(C(=O)Nn2c(O)c(C3=c4ccccc4=NC3=O)sc2=S)cc1  -18.6%
66. CCOc1cc(/C=C2\SC(=S)N(c3ccccc3)C2=O)cc([N+](=O)[O-])c1O  -22.5%
67. O=C1CSC(=S)N1/N=C\c1ccc(O)c([N+](=O)[O-])c1  -27.5%
68. Cc1cccc(C(=O)NNC(=O)c2ccc(O)cc2O)c1  -27.7%
